According to PubChem BioAssay AID1466 (National Center for Advancing Translational Sciences (NCATS), 2008):
About 10 (0.005%) of roughly 200,000 compounds were called active. Calls follow the shape of the dose curve; as a rule, active = well fitted inhibition curve with a large enough effect; inconclusive = small, poorly fitted or top-dose-only effect, or effect the other way, or another doubt; inactive = no such curve, though single readings can be large or run the other way. Inconclusive means that the source gave no clear call. Potencies of inconclusive entries are left out as doubtful fits.

The molecules below were run against Lysosomal alpha-glucosidase (Homo sapiens) (UniProt P10253) (assay: qHTS Assay for Inhibitors of Human alpha-Glucosidase as a Potential Chaperone Treatment of Pompe Disease). Conditions: purified human GAA, 4-MU-alpha-glucoside fluorescence; series mostly up to 76.9 µM.
Text: NIH Chemical Genomics Center [NCGC] NIH Molecular Libraries Probe Production centers Network [MLPCN] MLPCN Grant: 1R03MH084841-01 Assay Submitter (PI): Wei Zheng NCGC Assay Overview: Alpha-glucosidase is responsible for hydrolysis of terminal, non-reducing 1,4-linked alpha-D-glucose residues with release of alpha-D-glucose. It is a lysosomal hydrolase that is required for the degradation of a small percentage (1-3%) of cellular glycogen in human. Deficiency of this enzyme results in glycogen-storage disease type II (GSDII), also referred to as Pompe disease, an autosomal recessive disorder. Structurally normal glycogen is accumulated in lysosomes and cytoplasm in affected patients, primarily in muscle tissues. […]
NCGC Assay Protocol Summary: This is a fluorogenic enzyme assay with 4-methylumbelliferyl-alpha-D-[…] as the substrate and human alpha-glucosidase as the enzyme preparation. […] 4-methyllumbelliferone, can be excited at 365 nm and emits at 440 nm which can be detected by a standard fluorescence plate reader. […] In the AC50 values were determined from concentration-response data modeled with the standard Hill equation. […] (5) Add 2 ul stop solution (1M NaOH and 1M Glycine mixture, pH 10) (6) Detect the assay plate in a ViewLux plate reader (PerkinElmer) with Ex=365 nm and Em=440nm. […]
Potency is read from the fitted curve at half-maximal effect; tags tell the direction and shape of the fitted curve.

| SMILES | Potency |
| --- | --- |
| O=C(O)Cn1cc(/C=c2/sc3nc4ccccc4n3c2=O)c2ccccc21 | inconclusive [inhibitor, full curve] |
| O=C(Nc1ccc(-c2nc3ccccc3[nH]2)cc1)c1ccccc1NS(=O)(=O)c1ccc(F)cc1 | inconclusive [activator, single point] |
